PubChem BioAssay AID588855 (National Center for Advancing Translational Sciences (NCATS), 2011)
Screen size: about 410,000 compounds; about 5,000 (1.2%) were called active. The shares of active, inactive and inconclusive entries below differ from those in the screen. Calls follow the shape of the dose curve; as a rule, active = well fitted inhibition curve with a large enough effect; inconclusive = small, poorly fitted or top-dose-only effect; inactive = no such curve, though single readings can be large or run the other way. Where the call is inconclusive, the potency comes from a doubtful curve fit.

Assay: qHTS for Inhibitors of TGF-b; also: nearly all actives have a fitted effect of over 65% in size
Conditions: HepG2 CAGA-GFP TGF-b/SMAD3 reporter, GFP fluorescence, 18 h, TGF-beta stimulated, 500 pg/mL final; series mostly up to 46.1 µM; activity, negative = inhibition: at the top concentration
Outline: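 Cell-based qHTS in HEPG2 carrying a CAGA-GFP Smad reporter; compounds added before 500 pg/mL final TGF-beta, 18 h incubation at 37 degrees C, GFP fluorescence quantified per cell by imaging cytometry.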
% is scaled to controls: 0 for no effect and ±100 for the full control effect; potency is read from the fitted curve at half-maximal effect; tags tell the direction and shape of the fitted curve.

Row | Structure (SMILES) | activity, negative = inhibition | Potency
1 | O=C(Cn1cnc2c(oc3ccccc32)c1=O)Nc1ccc(F)cc1F | inactive: -5.25% | 
2 | C[C@H]1CN([C@@H](C)CO)C(=O)c2cc(NC(=O)C3CCCCC3)ccc2O[C@H]1CN(C)CC1CCCCC1 |  | inconclusive: 0.891 µM [inhibitor, full curve]
3 | CCC(OC(=O)c1nsc(Cl)c1Cl)C(=O)NCCc1ccccc1 (configuration not stated) |  | inconclusive: 31.6 µM [inhibitor, single point]
4 | COc1ccc(CC(=O)OCC(=O)N2N=C(c3ccccc3)CC2c2ccc(OC)cc2)cc1 (configuration not stated) |  | inconclusive: 0.112 µM [inhibitor, full curve, poor fit]
5 | COc1cc(/C=C/c2ccc3cccc(O)c3n2)cc(Cl)c1OC |  | inconclusive: 5.62 µM [inhibitor, partial curve, poor fit]
6 | C=CCCC(=O)N1C[C@H]2CON(C)[C@H]2C[C@H]1c1ccc(N2CCCCC2)cc1 |  | inconclusive: 35.5 µM [inhibitor, single point]
7 | Cc1ccc(CCNC(=O)CS(=O)Cc2nc(-c3ccccc3C)oc2C)cc1 (configuration not stated) |  | inconclusive: 15.8 µM [inhibitor, single point]
8 | Cc1ccc(NC(=O)c2cc3ccccc3cc2O)cc1 |  | inconclusive: 10 µM [inhibitor, partial curve, poor fit]
9 | Oc1c(CNc2ccccc2)cc(COCc2ccccc2)c2cccnc12 |  | inconclusive: 2 µM [inhibitor, partial curve, poor fit]
10 | CC(C)CCNC(=O)C(C)N(Cc1ccc(F)cc1)C(=O)c1ccc(CN2CCOCC2)o1 (configuration not stated) | inactive: 1.06% | 
11 | CCN(Cc1ccccc1)C(=O)Cn1c(=O)n(-c2ccc(Cl)cc2)c(=O)c2c(C)c(C(=O)N(C)C)sc21 |  | inconclusive: 2.82 µM [inhibitor, partial curve, poor fit]
12 | Cc1ccccc1OCCNC(=S)Nc1ccccc1 |  | inconclusive: 17.8 µM [inhibitor, partial curve]
13 | Nn1c(Cc2cccc3ccccc23)nnc1SCCOc1ccc(Br)cc1 |  | inconclusive: 35.5 µM [inhibitor, single point]
14 | NC(=O)CSc1nnc(NC(=O)c2ccc(S(=O)(=O)N3CCCCC3)cc2)s1 | inactive: -2.43% | 
15 | CC(C)CCNC(=O)C(c1ccco1)N(Cc1cccs1)C(=O)Cn1nnc2ccccc21 (configuration not stated) |  | active: 7.08 µM
16 | COc1cccc(CNc2nc(NCC3CC3)nc3ccsc23)c1 |  | inconclusive: 35.5 µM [inhibitor, single point]
17 | CCCc1ccc(-c2ccc(C(=O)Oc3ccc(OCC)cc3)cc2)nc1 |  | inconclusive: 5.62 µM [inhibitor, single point]
18 | COc1ccccc1N1CCN(c2cc(C)nc3nc(-c4ccc(C)cc4)nn23)CC1 |  | inconclusive: 0.126 µM [inhibitor, full curve, poor fit]
19 | CCn1nnc2cc(C(=O)Nc3cc(Cl)ccc3C)ccc21 | inactive: 8.55% | 
20 | CCn1c(SCC(=O)c2[nH]c(C)c(C(C)=O)c2C)nnc1-c1ccccc1 |  | inconclusive: 17.8 µM [inhibitor, single point]
21 | O=c1oc(-c2cccc(S(=O)(=O)N3CCOCC3)c2)nc2ccccc12 |  | inconclusive: 2 µM [inhibitor, full curve, poor fit]

Row | Structure (SMILES) | activity, negative = inhibition | Potency
22 | C#CCN(C[C@H]1[C@H](OC(=O)NCc2ccco2)[C@H](OC(=O)NCc2ccco2)C[C@H]2C(=O)N(c3ccccc3)C(=O)[C@@H]12)S(=O)(=O)c1ccc(C)cc1 | inactive: 13% | 
23 | O=C(NCc1ccccc1)c1ccc(N2CCC3(CC2)CC(c2ccccc2)=NO3)c([N+](=O)[O-])c1 |  | inconclusive: 3.55 µM [inhibitor, single point]
24 | Cc1onc(NC(=O)CSCC(=O)O)c1Br | inactive: 16.2% | 
25 | COc1ccc(C(CNC(=O)CSc2ccc(Br)cc2)N2CCOCC2)cc1 (configuration not stated) |  | inconclusive: 35.5 µM [inhibitor, single point]
26 | CNC(=O)/C(C#N)=C/c1c(N2CCN(c3cccc(Cl)c3)CC2)nc2c(C)cccn2c1=O | inactive: -14.6% | 
27 | Cc1nn(-c2ccc(N3CCCC3)nn2)c(C)c1CCC(=O)Nc1ccc(F)cc1F | inactive: -15.5% | 
28 | CC(C)CCN(C(=O)CCCSc1nc2ccccc2[nH]1)c1c(N)n(Cc2ccccc2)c(=O)[nH]c1=O | inactive: 21.1% | 
29 | CCc1ccccc1N1C(=O)CN(Cc2cc(OC)c(OC)c(OC)c2)C1=S | inactive: -8.75% | 
30 | Cc1ccc(-c2ccc(C(=O)Nc3ccccc3)o2)c2ccccc12 |  | inconclusive: 15.8 µM [inhibitor, partial curve, poor fit]
31 | CC(=O)c1ccc(NC(=O)c2ccc(COc3ccccc3[N+](=O)[O-])o2)cc1 |  | inconclusive: 0.708 µM [inhibitor, full curve, poor fit]
32 | COc1ccccc1/C=C/C(=O)c1cc(Br)ccc1OC(=O)c1ccco1 |  | inconclusive: 25.1 µM [inhibitor, single point]
33 | CC(=O)c1ccc(NC(=O)c2ccc(-c3ccc(Cl)cc3)o2)cc1 |  | inconclusive: 22.4 µM [inhibitor, single point]
34 | COc1ccc(CN(CC(O)COc2cccc3[nH]cc(C)c23)C(C)(C)C)cc1 (configuration not stated) |  | inconclusive: 35.5 µM [inhibitor, single point]
35 | Oc1ccc(/C=N/NC(=S)N2CCOCC2)cc1 |  | inconclusive: 35.5 µM [inhibitor, single point]
36 | CCn1c(CNC(=O)c2ccc(OC)cc2)nnc1SCC(=O)Nc1ccc(C)cc1 |  | inconclusive: 3.16 µM [inhibitor, full curve, poor fit]
37 | COc1ccc(N2CC(NC(=O)c3ccco3)CC2=O)cc1 (configuration not stated) | inactive: -15.7% | 
38 | CCS(=O)(=O)c1nc(S(=O)(=O)c2ccc(C)cc2)c(NCCCOC)s1 | inactive: 1.96% | 
39 | CC1C(=O)N(Cc2cn(Cc3ccco3)nn2)CCS(=O)(=O)N1Cc1ccc(-c2cccc(N(C)C)c2)cc1 (configuration not stated) | inactive: -2.35% | 
40 | Cc1ccc(F)c(S(=O)(=O)NC(=O)C2(C)CCN2C(=O)C2(c3ccc(Cl)cc3)CC2)c1 (configuration not stated) | inactive: -1.21% | 
41 | Cc1cc(C)nc(SCC(=O)N/N=C/c2cccn2-c2cccc(C(F)(F)F)c2)n1 |  | inconclusive: 6.31 µM [inhibitor, single point]
42 | Oc1ccc(N=Cc2sc3ccccc3c2Cl)cc1 |  | inconclusive: 8.91 µM [inhibitor, partial curve]
